Assay results published in PubChem BioAssay (EPA / NIEHS).
Values joined by “and” are separate entries in the source; they are usually repeats but may differ in a detail not shown here. Identical values can stand only once. The inconclusive results got no clear call from the source. Potencies of inconclusive entries are doubtful fits and often do not repeat.

Tested on: zebrafish Androgen Receptor (AR), gene 100005148; active means hit-call score of the fitted dose curve at least 0.9, where 1 is the maximum; inconclusive means response in the unintended direction; inactive means score below 0.9
Assay: ATG_zfAR_XSP2: Attagene TRANS-FACTORIAL Multi-Species (XSP2) HepG2 Assay for zebrafish Androgen Receptor (AR) (AID 2283825);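 further: hits raise reporter mRNA above DMSO so AC50 reflects agonist-type gain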
Experimental: ATG_XSP2_multi-species_TRANS is a cell-based, multiplexed assay created by modifying the existing Attagene TRANS-FACTORIAL system to include a panel of nuclear receptors from some or all the following species: human (Homo sapiens), mouse (Mus musculus), frog (Xenopus laevis), zebrafish (Danio rerio), chicken (Gallus gallus), and turtle (Chrysemys picta). The ECOTOX-FACTORIAL format uses HepG2, a human liver cell line, with measurements taken at 24 hours after chemical dosing in a 24-well plate. Xsp2 included 3 nM 6-alpha-fluorotestosterone and 1.5 nM norgestrel to stimulate the androgen receptor.ATG_zfAR_XSP2 is one of 29 assay components measured or calculated from the ATG_XSP2_multi-species_TRANS assay. It is designed to make measurements of mRNA induction, a form of inducible reporter, as detected with fluorescence intensity signals by Reverse transcription polymerase chain reaction (RT-PCR) and Capillary electrophoresis technology.The assay endpoint ATG_zfAR_XSP2 was analyzed in the positive analysis fitting direction relative to DMSO as the negative control and baseline of activity. Using a type of inducible reporter, measures of mRNA for gain-of-signal activity can be used to understand the reporter gene at the transcription factor-level as they relate to the gene AR. Furthermore, this assay endpoint can be referred to as a primary readout, because this assay has produced multiple assay endpoints where this one serves a reporter gene function. To generalize the intended target to other relatable targets, this assay endpoint is annotated to the nuclear receptor intended target family, where the subfamily is steroidal.
Human liver HepG2 cells are transiently transfected with multiple reporter transcription units (MRTUs) in 6-well plates using FuGene 6 reagent (Roche; 3 ml FuGene/1 mg DNA). The MRTU constructs are regulated by a cis-regulating element (promoter). […] A major difference between the CIS and TRANS system is that in CIS activities of endogenous TFs are measured, whereas the TRANS assay evaluates changes in activities of exogenous, chimeric NR-Gal4 proteins. […] At the end of 24 hour incubation, total RNA was isolated using TriZol reagent (Invitrogen). The isolated RNA is then reverse-transcribed using oligo(dT) primer and Mo-MLV reverse transcriptase (Invitrogen) with DNAse I (Ambion) treatment for 30 min. The one-tenth of the produced cDNA was amplified by PCR using Taq DNA polymerase (Invitrogen) and two reporter sequence-specific primers. The PCR products were fluorescently labeled by primer extension with 6-arboxyfluorescein (6-FAM) 5'-labeled reporter sequence-specific primer (2 min at 95 C, 20 s at 68 C and 10 min at 72 C) and these products were digested with 5U of HpaI (New England Biolabs) for 2h at 37 C. The fragments were purified using Qiaquick PCR columns (Qiagen), analyzed on an ABI 3130xL genetic analyzer (Applied Biosystems) with peak positions identified by using a set of X-rhodamine (ROX)-labeled MapMarker1000 molecular weight standards (BioVentures). The raw capillary electrophoresis data was processed using Attagraph software (Attagene).

| Structure (SMILES) | AC50 |
| --- | --- |
| CCCCC(CC)COC(=O)c1ccc(C(=O)OCC(CC)CCCC)c(C(=O)OCC(CC)CCCC)c1 (configuration not stated) | inconclusive: 9.14 nM and inconclusive: 60.6 µM |
| CC(C)C1CCC(Cc2ccc(Cl)cc2)C1(O)Cn1cncn1 (configuration not stated) | inconclusive: 4.8 µM and inconclusive: 2.39 µM |
| Oc1cc(Cl)c(Cl)cc1Cl | inconclusive: 100 µM and inconclusive: 49.6 µM |
| N#Cc1c[nH]cc1-c1cccc2c1OC(F)(F)O2 | inconclusive: 3.93 µM and inconclusive: 10.8 µM |
| COC(=O)N(OC)c1ccccc1COc1ccn(-c2ccc(Cl)cc2)n1 | inconclusive: 10 µM |
| CCc1cccc(C)c1N(C(=O)CCl)C(C)COC (configuration not stated) | inconclusive: 19.8 µM |
| CCCC1COC(Cn2cncn2)(c2ccc(Cl)cc2Cl)O1 (configuration not stated) | inconclusive: 26.4 µM |
| O=S(=O)(O)C(F)(F)C(F)(F)C(F)(F)C(F)(F)C(F)(F)C(F)(F)C(F)(F)C(F)(F)F | inconclusive: 100 µM |
| CCOC(=O)C(O)(c1ccc(Cl)cc1)c1ccc(Cl)cc1 | inconclusive: 9.15 µM and inconclusive: 5.31 µM |
| CCOP(=S)(OCC)O/N=C(\C#N)c1ccccc1 | inconclusive: 100 µM and inconclusive: 29.6 µM |
| CCCCC(CC)COC(=O)c1ccccc1C(=O)OCC(CC)CCCC (configuration not stated) | inconclusive: 100 µM |
| OC(c1ccc(Cl)cc1)(c1cncnc1)c1ccccc1Cl (configuration not stated) | inconclusive: 5.7 µM |
| c1cc2ccc3cccc4ccc(c1)c2c34 | inconclusive: 26.4 µM and inconclusive: 3.26 µM |
| CC(C)(c1cc(Cl)c(O)c(Cl)c1)c1cc(Cl)c(O)c(Cl)c1 | inconclusive: 16.9 µM |
| CCC(=O)Nc1ccc(Cl)c(Cl)c1 | inconclusive: 1.87 µM and inconclusive: 27.7 µM |
| CCOP(=O)(NC(C)C)Oc1ccc(SC)c(C)c1 (configuration not stated) | inconclusive: 19.8 µM and inconclusive: 61.5 µM |
| C#CC(C)(C)NC(=O)c1cc(Cl)cc(Cl)c1 | inconclusive: 0.0366 µM |
| CSC(=O)c1c(C(F)F)nc(C(F)(F)F)c(C(=O)SC)c1CC(C)C | inconclusive: 16.1 µM |
| Clc1ccc(C(c2ccc(Cl)cc2)C(Cl)(Cl)Cl)cc1 | inconclusive: 0.198 µM |
| CCCCOC(=O)c1ccccc1C(=O)OCc1ccccc1 | inconclusive: 182 µM |
| CCOP(=S)(OCC)Oc1ccc2c(C)c(Cl)c(=O)oc2c1 | inconclusive: 26.6 µM |
| CC(C)(C)CC(C)(C)c1ccc(O)cc1 | inconclusive: 10 µM |
| O=P(Oc1ccccc1)(Oc1ccccc1)Oc1ccccc1 | inconclusive: 19.6 µM |
| C#CCC1=C(C)C(OC(=O)C2C(C=C(C)C)C2(C)C)CC1=O (configuration not stated) | inconclusive: 59 µM |
| c1ccc2c(c1)Nc1ccccc1S2 | inconclusive: 16.3 µM and inconclusive: 26.7 µM |
| O=C(O)C(F)(F)C(F)(F)C(F)(F)C(F)(F)C(F)(F)C(F)(F)C(F)(F)F | inconclusive: 19.8 µM |
| CCOP(=S)(OCC)SCn1c(=O)oc2cc(Cl)ccc21 | inconclusive: 56.5 µM |
